# The campaign covered roughly 350,000 compounds. About 9,900 (2.8%) were called active. The inconclusive results got no clear call from the source; some entries with a clear call stand among them for comparison. Calls follow the shape of the dose curve; as a rule, active = well fitted activation curve with a large enough effect; inconclusive = small, poorly fitted or top-dose-only effect; inactive = no such curve, though single readings can be large or run the other way. Potencies of inconclusive entries are left out as doubtful fits.
# Assay: A quantitative high throughput screen for small molecules that induce DNA re-replication in MCF 10a normal breast cells. Also: nearly all actives have a fitted effect of over 50% in size. As to activity, positive = re-replication: % of control where 0% means no effect.
# Conditions: MCF 10A DNA re-replication, Hoechst nuclear intensity, 48 h; activity, positive = re-replication: at 46.1 µM (top of the series)
# Potency is read from the fitted curve at half-maximal effect; tags tell the direction and shape of the fitted curve.
Structure (SMILES),Potency,"activity, positive = re-replication"
COc1ccc([C@H]2CC(=O)C=C(c3cccc(C(C)C)c3)C2)cc1OC,"inconclusive [activator, partial curve, poor fit]",–
CCNC(=O)/C=C/c1cccc(Br)c1,inactive,–
C=CCn1c(C)cc(-c2csc(NCC)n2)c1C,"inconclusive [activator, single point]",–
CCOC(=O)CNC(=O)N1CCc2ccc(NC(=O)c3ccccc3Cl)cc2C1,active: 7.31 µM,–
O=C1c2cccc3cccc(c23)C(=O)N1CC1CCN(S(=O)(=O)c2ccc(F)cc2)CC1,inactive,–
N#Cc1ccc(/C=N/NC(=O)c2cc(-c3cccs3)nc3ccccc23)cc1,active: 20.6 µM,–
c1ccc(-c2nnc(NC3=NCCC3)o2)cc1,inactive,–
CN(Cc1ccc(F)cc1)C(=O)c1cccc(NS(=O)(=O)c2ccccc2)c1,inactive,–
O=C(CN1CCCCCCC1)Nc1cccc(Cl)c1Cl,"inconclusive [activator, partial curve]",–
Cc1cc(C)cc(NC(=O)c2cc3c(=O)n4ccccc4nc3s2)c1,"inconclusive [activator, single point]",–
CCC(=O)c1ccc(OC(C)C(=O)NC2(C#N)CCCCC2)cc1 (stereo not drawn),inactive,–
O=C(CC1Nc2ccccc2NC1=O)Nc1ccc2c(c1)OCO2 (stereo not drawn),"inconclusive [activator, single point]",–
CC(CCc1ccc(O)cc1)NCc1ccc(Cl)cc1Cl (stereo not drawn),"inconclusive [activator, partial curve, poor fit]",–
Cc1cccc2cc(C#N)c(NCCNS(=O)(=O)c3ccc4c(c3)OCCO4)nc12,"inconclusive [activator, partial curve, poor fit]",–
CCCSc1nsc(NC(=O)C(c2ccccc2)c2ccccc2)n1,"inconclusive [activator, single point]",–
COc1ccc(-c2c3c(cc(C)[n+]2[O-])oc2ccc(OC)cc23)cc1,active: 16.4 µM,–
Nc1ccc(O)cc1C(=O)OCC(=O)C12CC3CC(CC(C3)C1)C2,"inconclusive [activator, single point]",–
CC(=O)c1cccc(S(=O)(=O)N2CCN(c3nc4cc(C)cc(C)c4cc3C#N)CC2)c1,"inconclusive [activator, partial curve, poor fit]",–
CCOc1nc2cnccc2n(CC(=O)Nc2ccc(C)c(C)c2)c1=O,inactive,–
COc1cccc(-c2nn(-c3ccccc3)cc2/C=C(/NC(=O)c2ccccc2)C(=O)O)c1,inactive,–
COc1cc(NC(=O)c2ccccn2)cc(OC)c1OC,inactive,–
COc1ccc(-c2csc(NC(=O)CSc3nc(C)nc4sc(C(=O)O)c(C)c34)n2)cc1,"inconclusive [activator, single point]",–
COc1ccc(/C=C/C(=O)NNC(=O)C(C)Oc2ccccc2F)cc1OC (stereo not drawn),inactive,–

Structure (SMILES),Potency,"activity, positive = re-replication"
Cc1ccc(NC(=O)CN2CCCC2)cc1,"inconclusive [activator, single point]",–
O=C(/C=C/c1cccs1)c1cc(Cl)ccc1O,inactive,–
Cc1cc(/C=N/NC(=O)c2cccc(F)c2)c(C)n1-c1ccccc1,active: 18.4 µM,–
COC(=O)[C@@]1(Cc2ccc(F)cc2)[C@H]2c3cc(C(=O)N4CCCC4)n(Cc4ccc(C(F)(F)F)nc4)c3C[C@H]2CN1C(=O)c1ccccc1,inactive,–
COc1cccc(C(=O)NC(C)CCc2ccccc2)c1 (stereo not drawn),inactive,–
Cc1ccc(Cc2cnc(NC(=O)c3cccs3)s2)cc1,"inconclusive [activator, single point]",–
COC(=O)c1ccc(C(=O)OC)c(NC(=S)N2CCN(c3ccccc3)CC2)c1,inactive,–
CN(C)C(/C=C/Nc1ccc(O)cc1)=C(C#N)C#N,"inconclusive [activator, single point]",–
COc1cc(-c2ccc(NC(=O)CN3CCC(C)CC3)c(OC)c2)ccc1NC(=O)CN1CCC(C)CC1,"inconclusive [activator, partial curve, poor fit]",–
COc1ccc(Cl)cc1NC(=O)CN(C)CC(=O)Nc1ccc(Br)cc1,"inconclusive [activator, partial curve, poor fit]",–
C#CCOCCOCCOCCNc1nc(N2CCN(C(=O)[C@H](CCCCN)n3cc(CN)nn3)CC2)nc(N2CCN(C(=O)[C@H](CCC(=O)O)n3cc([C@@H](N)CCSC)nn3)CC2)n1,inactive,–
Cc1cccc(S(=O)(=O)CC(=O)Nc2nc(-c3ccccc3)cs2)c1,"inconclusive [activator, partial curve, poor fit]",–
C/C(=N\NC(=O)c1c(C)nc2ccccn12)c1ccccc1F,inactive,–
COCc1cc(C)nc(SCC(=O)Nc2cccc3cccnc23)c1C#N,"inconclusive [activator, full curve, poor fit]",–
C=CCNc1sc(C(=O)c2ccc(C)cc2)c(N)c1C#N,"inconclusive [activator, single point]",–
CCCOc1ccc(-c2nc(C#N)c(N3CCN(CC)CC3)o2)cc1,"inconclusive [activator, single point]",–
Cc1sc2nc(C(C)C)nc(SCC(=O)NCc3ccco3)c2c1C,"inconclusive [activator, single point]",–
O=C(CNC(=O)c1ccco1)NCC(=O)OCC(=O)c1ccc(Cl)c([N+](=O)[O-])c1,"inconclusive [activator, single point]",–
CCN(C(=O)COC(=O)/C=C/c1nc2ccccc2s1)C1CCS(=O)(=O)C1 (stereo not drawn),"inconclusive [activator, single point]",–
CC(=O)c1sc(NCCOc2ccc(C)cc2)nc1C,inactive,–
O=C(CSc1nc(-c2ccc(F)cc2)cs1)N1CCOCC1,"inconclusive [activator, single point]",–
Cc1ccc(C(C(=O)NC2CCCC2)N(Cc2ccc3c(c2)OCO3)C(=O)Cc2cccs2)cc1 (stereo not drawn),"inconclusive [activator, single point]",–
CC(=O)NC1CC2CCCC(C1)N2S(=O)(=O)c1cccc(F)c1 (stereo not drawn),"inconclusive [activator, single point]",–

Structure (SMILES),Potency,"activity, positive = re-replication"
CCC(=O)c1ccc(OCCn2cncn2)cc1,inactive,–
O=C(Nc1ccc(NC(=O)c2sc3ccccc3c2Cl)cc1Cl)c1ccco1,"inconclusive [activator, single point]",–
COc1ccc(/C=N/NC(=O)c2ccncc2)cc1CSc1nc2ccccc2s1,"inconclusive [activator, single point]",–
CSc1ccc(CN(C)C(=O)COc2ccc(C(=O)c3ccccc3)cc2)cc1,active: 13 µM,–
CCCN(CCC)C(=O)c1cc2c(=O)[nH]c3ccc(C)cc3c2s1,"inconclusive [activator, single point]",–
CCOC(=O)c1sc2nc(N3CCOCC3)c3c(c2c1N)CC(C(C)C)OC3 (stereo not drawn),"inconclusive [activator, single point]",–
CC(=O)NS(=O)(=O)c1ccc(NC(=O)c2cccc3ccccc23)cc1,"inconclusive [activator, single point]",–
COc1ccc(C)cc1NC1=C(Cl)C(=O)N(C2CCCCC2)C1=O,"inconclusive [activator, partial curve, poor fit]",–
Cn1c(CN2CCN(C(=O)c3ccco3)CC2)nc2cc([N+](=O)[O-])ccc21,"inconclusive [activator, single point]",–
COc1ccc(CN(C)CC(=O)Nc2cc(OC)c([N+](=O)[O-])cc2C)c(OC)c1,inactive,–
COc1ccc(S(=O)(=O)Nc2ccc(S(=O)(=O)Nc3ccc(F)cc3)cc2)cc1C,"inconclusive [activator, partial curve, poor fit]",–
CC(C)CN(C(=O)COC(=O)CNC(=O)c1ccc(Cl)cc1)C1CCS(=O)(=O)C1 (stereo not drawn),–,inconclusive: 89.8% [activator]
CCOC(=O)C1CCN(CC(C)(C)NS(=O)(=O)c2ccccc2)CC1,"inconclusive [activator, single point]",–
CCOCCCNC(=S)NCCCNc1nc2c(C)c(C)ccc2cc1C#N,active: 18.4 µM,–
CN(C)c1ccc(C(=S)N2CCCCC2)cc1Br,inactive,–
Cc1ccc(C(=O)OCC(=O)c2c[nH]c3ccccc23)cc1S(=O)(=O)N1CCOCC1,"inconclusive [activator, full curve, poor fit]",–
O=c1ccc2c([nH]1)CCCCCCCCCC2,"inconclusive [activator, full curve, poor fit]",–
CCn1c(NC(=O)/C=C/c2ccc(F)cc2)nc2ccccc21,"inconclusive [activator, single point]",–
COc1cc2ncnc(NCc3ccccc3C)c2cc1OC,"inconclusive [activator, full curve, poor fit]",–
COc1cc(/C=C2\SC(=S)N(CCC(=O)Nc3cccc(O)c3)C2=O)cc(OC)c1OC,"inconclusive [activator, single point]",–
Cn1c(N2CCN(C(=O)Nc3ccc(C(F)(F)F)cc3)CC2)nc2ccccc21,"inconclusive [activator, single point]",–
CC12CCC(C(=O)N(CCCCN3CCN(Cc4ccccc4)CC3)C1=O)C2(C)C (stereo not drawn),"inconclusive [activator, partial curve, poor fit]",–

# From PubChem BioAssay AID624296 (National Center for Advancing Translational Sciences (NCATS), 2012)
